# The other results are listed elsewhere or left out. Cleavage of a single-stranded DNA pool by Rep nickase domains was read by sequencing for 1 h at 37 °C with 3 µM enzyme; only the middle of the 90-letter strands is printed. A value is the log2 ratio of uncut reads to the pool without enzyme; the lower, the more was cut; hits are not called. Reads are scaled to the total; uncut strands gain when others are lost, and binding without cutting may add a little.
# Assays:
# Assay in all cases: uncleaved DNA left, log2 of reads against the no-enzyme library (log2 ratio); higher = less cleavage (more negative = more Rep cleavage of the k-mer); sequences stand for … in CTCGTCCG…ACCGGAGA
# [1] = test system: T1, Rep nickase domain of Muscovy duck circovirus
# T1 sequence (residues 1-111 of Rep, tag left off): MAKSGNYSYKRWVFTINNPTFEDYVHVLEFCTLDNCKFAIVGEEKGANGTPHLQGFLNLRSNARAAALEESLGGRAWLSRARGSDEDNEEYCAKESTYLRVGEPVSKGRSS
# Method: (§1)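 A pool of 90-nt single-stranded DNAs with seven random bases just before the constant AC of the nick site (name = the seven bases) was cut by 3 µM recombinant His6-SUMO-tagged Rep nickase domain (300 nM DNA, 50 mM HEPES pH 8.0, 50 mM NaCl, 1 mM MnCl2, 1 h, 37 °C, three replicates). Uncut DNA was amplified and sequenced.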
# [2] = test system: T2, Rep nickase domain of banana bunchy top virus
# T2 sequence (residues 1-94 of Rep, tag left off): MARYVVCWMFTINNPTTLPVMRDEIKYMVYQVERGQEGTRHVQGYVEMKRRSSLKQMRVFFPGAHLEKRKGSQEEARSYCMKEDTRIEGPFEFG
# Method: as §1
# [3] = test system: T3, Rep nickase domain of cabbage leaf curl virus
# T3 sequence (residues 1-116 of Rep, tag left off): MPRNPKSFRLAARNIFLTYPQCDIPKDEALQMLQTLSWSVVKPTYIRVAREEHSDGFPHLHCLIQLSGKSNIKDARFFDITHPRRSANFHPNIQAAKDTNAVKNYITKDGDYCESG
# Method: as §1
# [4] = test system: T4, Rep nickase domain of chickpea chlorotic dwarf virus
# T4 sequence (residues 1-124 of Rep, tag left off): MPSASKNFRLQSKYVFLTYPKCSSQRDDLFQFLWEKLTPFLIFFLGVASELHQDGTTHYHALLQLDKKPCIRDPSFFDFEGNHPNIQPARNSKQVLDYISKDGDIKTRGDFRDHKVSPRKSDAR
# Method: as §1
# [5] = test system: T5, Rep nickase domain of faba bean necrotic yellows virus
# T5 sequence (residues 1-98 of Rep, tag left off): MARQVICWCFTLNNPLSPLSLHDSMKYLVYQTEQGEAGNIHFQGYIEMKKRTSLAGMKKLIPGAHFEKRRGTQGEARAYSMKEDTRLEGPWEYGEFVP
# Method: as §1
# [6] = test system: T6, Rep nickase domain of maize striate mosaic virus
# T6 sequence (residues 1-117 of Rep, tag left off): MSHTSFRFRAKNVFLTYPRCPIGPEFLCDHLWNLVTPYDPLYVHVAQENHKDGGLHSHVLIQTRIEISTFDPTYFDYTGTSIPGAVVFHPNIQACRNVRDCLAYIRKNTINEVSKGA
# Method: as §1
# [7] = test system: T7, Rep nickase domain of porcine circovirus 2
# T7 sequence (residues 2-116 of Rep, tag left off): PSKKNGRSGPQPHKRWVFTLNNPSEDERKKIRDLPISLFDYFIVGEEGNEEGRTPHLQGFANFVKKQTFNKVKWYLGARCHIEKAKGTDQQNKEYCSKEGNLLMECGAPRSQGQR
# Method: as §1
# [8] = test system: T8, Rep nickase domain of tomato golden mosaic virus
# T8 sequence (residues 1-124 of Rep, tag left off): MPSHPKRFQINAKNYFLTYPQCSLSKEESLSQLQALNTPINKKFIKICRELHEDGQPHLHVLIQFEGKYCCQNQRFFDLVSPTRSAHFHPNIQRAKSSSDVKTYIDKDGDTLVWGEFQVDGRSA
# Method: as §1
# [9] = test system: T9, Rep nickase domain of tomato yellow leaf curl virus
# T9 sequence (residues 1-136 of Rep, tag left off): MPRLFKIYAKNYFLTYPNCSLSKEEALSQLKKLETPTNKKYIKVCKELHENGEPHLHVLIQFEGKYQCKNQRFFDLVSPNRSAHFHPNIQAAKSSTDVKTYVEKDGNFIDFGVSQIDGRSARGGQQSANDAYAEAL
# Method: as §1
# [10] = test system: T10, Rep nickase domain of wheat dwarf virus
# T10 sequence (residues 1-137 of Rep, tag left off): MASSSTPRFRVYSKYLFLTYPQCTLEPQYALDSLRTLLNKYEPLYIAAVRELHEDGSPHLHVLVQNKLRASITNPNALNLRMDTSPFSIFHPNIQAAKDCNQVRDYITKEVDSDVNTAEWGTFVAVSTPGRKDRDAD
# Method: as §1
sequence,measurement,setting,value
CGACTTT,uncleaved DNA left (log2),[1],0.00113
same,uncleaved DNA left (log2),[2],0.0305
same,uncleaved DNA left (log2),[3],0.0837
same,uncleaved DNA left (log2),[4],-0.0264
same,uncleaved DNA left (log2),[5],-0.0144
same,uncleaved DNA left (log2),[6],1.12
same,uncleaved DNA left (log2),[7],-0.00671
same,uncleaved DNA left (log2),[8],-0.204
same,uncleaved DNA left (log2),[9],0.0704
same,uncleaved DNA left (log2),[10],0.0977
ACAAATA,uncleaved DNA left (log2),[1],0.0697
same,uncleaved DNA left (log2),[2],0.104
same,uncleaved DNA left (log2),[3],-0.0903
same,uncleaved DNA left (log2),[4],-1.44
same,uncleaved DNA left (log2),[5],0.185
same,uncleaved DNA left (log2),[6],-0.638
same,uncleaved DNA left (log2),[7],0.147
same,uncleaved DNA left (log2),[8],0.133
same,uncleaved DNA left (log2),[9],-0.0694
same,uncleaved DNA left (log2),[10],0.117
CCGAAGA,uncleaved DNA left (log2),[1],0.0065
same,uncleaved DNA left (log2),[2],0.0188
same,uncleaved DNA left (log2),[3],0.112
same,uncleaved DNA left (log2),[4],0.264
same,uncleaved DNA left (log2),[5],0.0504
same,uncleaved DNA left (log2),[6],-0.239
same,uncleaved DNA left (log2),[7],0.147
same,uncleaved DNA left (log2),[8],-0.165
same,uncleaved DNA left (log2),[9],-0.144
same,uncleaved DNA left (log2),[10],-0.038
ATTTGAC,uncleaved DNA left (log2),[1],0.0952
same,uncleaved DNA left (log2),[2],-0.128
same,uncleaved DNA left (log2),[3],-0.0205
same,uncleaved DNA left (log2),[4],-0.19
same,uncleaved DNA left (log2),[5],0.00895
same,uncleaved DNA left (log2),[6],-0.804
same,uncleaved DNA left (log2),[7],0.0761
same,uncleaved DNA left (log2),[8],0.0323
same,uncleaved DNA left (log2),[9],-0.017
same,uncleaved DNA left (log2),[10],-0.008
CAGTAGA,uncleaved DNA left (log2),[1],-0.0106
same,uncleaved DNA left (log2),[2],-0.27
same,uncleaved DNA left (log2),[3],-0.305
same,uncleaved DNA left (log2),[4],-0.585
same,uncleaved DNA left (log2),[5],-0.0436
same,uncleaved DNA left (log2),[6],-1.27
same,uncleaved DNA left (log2),[7],-2.55
same,uncleaved DNA left (log2),[8],-0.0875
same,uncleaved DNA left (log2),[9],-0.0672
same,uncleaved DNA left (log2),[10],-0.212
ATAGTTT,uncleaved DNA left (log2),[1],-0.0782
same,uncleaved DNA left (log2),[2],-0.133
same,uncleaved DNA left (log2),[3],-0.167
same,uncleaved DNA left (log2),[4],-2.3
same,uncleaved DNA left (log2),[5],-0.0644
same,uncleaved DNA left (log2),[6],-0.385
same,uncleaved DNA left (log2),[7],-0.136
same,uncleaved DNA left (log2),[8],-0.0666
same,uncleaved DNA left (log2),[9],-0.0787
same,uncleaved DNA left (log2),[10],0.0175
ATCCGTG,uncleaved DNA left (log2),[1],0.0158
same,uncleaved DNA left (log2),[2],0.0532
same,uncleaved DNA left (log2),[3],-0.449
same,uncleaved DNA left (log2),[4],-0.433
same,uncleaved DNA left (log2),[5],-0.0811
same,uncleaved DNA left (log2),[6],-1.19
same,uncleaved DNA left (log2),[7],0.25
same,uncleaved DNA left (log2),[8],0.0276
same,uncleaved DNA left (log2),[9],0.0364
same,uncleaved DNA left (log2),[10],-0.0152
GCGATAT,uncleaved DNA left (log2),[1],0.132
same,uncleaved DNA left (log2),[2],0.164
same,uncleaved DNA left (log2),[3],0.568
same,uncleaved DNA left (log2),[4],1.39
same,uncleaved DNA left (log2),[5],-0.0542
same,uncleaved DNA left (log2),[6],1.7
same,uncleaved DNA left (log2),[7],0.141
same,uncleaved DNA left (log2),[8],0.0815
same,uncleaved DNA left (log2),[9],0.0564
same,uncleaved DNA left (log2),[10],0.109
GGCGAGC,uncleaved DNA left (log2),[1],0.00431
same,uncleaved DNA left (log2),[2],-0.116
same,uncleaved DNA left (log2),[3],0.352
same,uncleaved DNA left (log2),[4],0.979
same,uncleaved DNA left (log2),[5],-0.0305
same,uncleaved DNA left (log2),[6],1.09
same,uncleaved DNA left (log2),[7],0.0551
same,uncleaved DNA left (log2),[8],0.136
same,uncleaved DNA left (log2),[9],0.0358
same,uncleaved DNA left (log2),[10],0.0901
AGGGTAA,uncleaved DNA left (log2),[1],-0.131
same,uncleaved DNA left (log2),[2],-0.139
same,uncleaved DNA left (log2),[3],0.197
same,uncleaved DNA left (log2),[4],0.922
same,uncleaved DNA left (log2),[5],-0.112
same,uncleaved DNA left (log2),[6],1.16
same,uncleaved DNA left (log2),[7],0.00718
same,uncleaved DNA left (log2),[8],0.0266
same,uncleaved DNA left (log2),[9],-0.0132
same,uncleaved DNA left (log2),[10],-0.0205
CGCAATA,uncleaved DNA left (log2),[1],0.0193
same,uncleaved DNA left (log2),[2],-0.0356
same,uncleaved DNA left (log2),[3],-0.16
same,uncleaved DNA left (log2),[4],-0.564
same,uncleaved DNA left (log2),[5],0.0417
same,uncleaved DNA left (log2),[6],-0.35
same,uncleaved DNA left (log2),[7],-0.126
same,uncleaved DNA left (log2),[8],-0.024
same,uncleaved DNA left (log2),[9],0.0306
same,uncleaved DNA left (log2),[10],0.0708
AAAAGGC,uncleaved DNA left (log2),[1],0.0604
same,uncleaved DNA left (log2),[2],0.091
same,uncleaved DNA left (log2),[3],-0.0433
same,uncleaved DNA left (log2),[4],-0.0758
same,uncleaved DNA left (log2),[5],0.088
same,uncleaved DNA left (log2),[6],-0.781
same,uncleaved DNA left (log2),[7],0.221
same,uncleaved DNA left (log2),[8],0.159
same,uncleaved DNA left (log2),[9],0.0831
same,uncleaved DNA left (log2),[10],0.107
ATTGATG,uncleaved DNA left (log2),[1],-0.0383
same,uncleaved DNA left (log2),[2],-0.0498
same,uncleaved DNA left (log2),[3],-0.476
same,uncleaved DNA left (log2),[4],-0.304
same,uncleaved DNA left (log2),[5],-0.014
same,uncleaved DNA left (log2),[6],-0.932
same,uncleaved DNA left (log2),[7],0.181
same,uncleaved DNA left (log2),[8],-0.00113
same,uncleaved DNA left (log2),[9],0.196
same,uncleaved DNA left (log2),[10],0.0343
CTTGGTT,uncleaved DNA left (log2),[1],0.0724
same,uncleaved DNA left (log2),[2],-0.192
same,uncleaved DNA left (log2),[3],-0.0538
same,uncleaved DNA left (log2),[4],-1.02
same,uncleaved DNA left (log2),[5],0.0427
same,uncleaved DNA left (log2),[6],0.0569
same,uncleaved DNA left (log2),[7],-0.762
same,uncleaved DNA left (log2),[8],-0.0111
same,uncleaved DNA left (log2),[9],-0.128
same,uncleaved DNA left (log2),[10],-0.209
GAGAAGC,uncleaved DNA left (log2),[1],0.0766
same,uncleaved DNA left (log2),[2],0.00875
same,uncleaved DNA left (log2),[3],0.211
same,uncleaved DNA left (log2),[4],0.611
same,uncleaved DNA left (log2),[5],-0.00856
same,uncleaved DNA left (log2),[6],-0.0848
same,uncleaved DNA left (log2),[7],0.166
same,uncleaved DNA left (log2),[8],0.00326
same,uncleaved DNA left (log2),[9],0.0554
same,uncleaved DNA left (log2),[10],-0.00469
